Consider one molecule from patent publication US10655130B2, “Modulation of breast cancer growth by modulation of XBP1 activity” (Cornell University, priority 2012, dated 2020).

Experiment [1] concerns MDA-MB-231 xenograft tumors. Conditions: cells derived from treated tumors, day 20.
The test system of experiment [2] is MDA-MB-231 xenograft tumors. As to conditions: after treatment from day 15 until day 30.

For `COc1cccc2c1C(=O)c1c(O)c3c(c(O)c1C2=O)C[C@@](O)(C(=O)CO)C[C@@H]3O[C@H]1C[C@H](N)[C@H](O)[C@H](C)O1` [doxorubicin], the mammosphere formation result in experiment [1] is on record as “increased”. In addition, the relapse from treatment in experiment [2] was determined as 60 days.
